Results are given in words; binding and its absence hold for the method and conditions named. For some of these results: Binding seen in cells or lysates may run through a third protein. Some results given as binding are weak or reduced against the parent protein; the word gives no strength. For some of these results: Tags and fused reporters may be left off the sequences shown.
T1: Flag-OSBP, full length (human) (UniProt P22059)
T1 sequence: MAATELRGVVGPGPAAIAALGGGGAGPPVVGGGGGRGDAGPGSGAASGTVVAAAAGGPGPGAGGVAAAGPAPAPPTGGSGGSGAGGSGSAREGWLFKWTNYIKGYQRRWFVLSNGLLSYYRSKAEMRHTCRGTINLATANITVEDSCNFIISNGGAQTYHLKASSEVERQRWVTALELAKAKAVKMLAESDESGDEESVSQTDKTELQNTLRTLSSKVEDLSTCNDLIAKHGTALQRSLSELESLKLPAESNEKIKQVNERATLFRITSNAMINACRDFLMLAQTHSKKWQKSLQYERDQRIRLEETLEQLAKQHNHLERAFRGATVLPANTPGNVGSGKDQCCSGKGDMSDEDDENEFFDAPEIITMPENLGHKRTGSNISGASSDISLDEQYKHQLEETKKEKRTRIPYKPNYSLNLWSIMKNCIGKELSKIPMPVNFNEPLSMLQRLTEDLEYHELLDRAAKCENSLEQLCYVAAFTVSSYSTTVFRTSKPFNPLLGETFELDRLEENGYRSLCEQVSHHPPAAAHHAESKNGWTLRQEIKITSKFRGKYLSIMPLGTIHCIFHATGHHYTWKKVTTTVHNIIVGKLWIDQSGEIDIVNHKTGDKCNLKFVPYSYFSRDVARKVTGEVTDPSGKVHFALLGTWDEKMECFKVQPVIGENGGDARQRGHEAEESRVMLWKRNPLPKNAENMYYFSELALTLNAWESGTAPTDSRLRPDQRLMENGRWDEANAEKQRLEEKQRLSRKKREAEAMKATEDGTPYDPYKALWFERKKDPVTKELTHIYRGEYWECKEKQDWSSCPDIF

The chains behind the UniProt entries cited, without tags or fusion partners. Where a name states a change or a piece, a line headed by the entry shows the natural chain unless it says otherwise.
UniProt P62491: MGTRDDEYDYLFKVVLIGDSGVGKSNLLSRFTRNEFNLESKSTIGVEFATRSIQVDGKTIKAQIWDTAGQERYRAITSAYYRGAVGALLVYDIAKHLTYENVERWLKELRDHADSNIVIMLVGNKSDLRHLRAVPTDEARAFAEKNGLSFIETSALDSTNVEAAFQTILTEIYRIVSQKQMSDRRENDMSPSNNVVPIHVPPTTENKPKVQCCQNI

B1: Myc-tagged RELCH 904–1,216 (domain or fragment, UniProt Q148V7 904-1216)
chain: KATVPIYATGVLTCYIQEEDRKLLVGFLEDVMTLLSLSHAPLDSLKASFVELGANPAYHELLLTVLWYGVVHTSALVRCTAARMFELLVKGVNETLVAQRVVPALITLSSDPEISVRIATIPAFGTIMETVIQRELLERVKMQLASFLEDPQYQDQHSLHTEVIRTFGRVGPNAEPRFRDEFVIPHLHKLALVNNLQIVDSKKLDIATHLFEAYSALSCCFISEDLMVNHFLPGLRCLRTDMEHLSPEHEVILSSMIKECEQKVENKTVQEPPGSMSIAASLVSEDTKTKFLNKMGQLTTSGAMLANVFQRKK
B2: Myc-tagged RELCH 904–1,142 (domain or fragment, UniProt Q148V7 904-1142)
chain: KATVPIYATGVLTCYIQEEDRKLLVGFLEDVMTLLSLSHAPLDSLKASFVELGANPAYHELLLTVLWYGVVHTSALVRCTAARMFELLVKGVNETLVAQRVVPALITLSSDPEISVRIATIPAFGTIMETVIQRELLERVKMQLASFLEDPQYQDQHSLHTEVIRTFGRVGPNAEPRFRDEFVIPHLHKLALVNNLQIVDSKKLDIATHLFEAYSALSCCFISEDLMVNHFLPGLRCLR
B3: Gal4AD-RELCH, full length (protein, UniProt Q148V7 1-1216)
chain: MAAMAPGGGGSGSGVNPFLSDSDEDDDEVAATEDRRAGLRLGAGVGLDPGSAGSLSPQDPMALGSSARPGLAVEMSAAPAALGGSGETPARLSIDAIAAQLLRDQYLLTALELHTELLESGRELPRLRDYFSNPGNFERQSGTPPGMGAPGIPGASIVGGAGGREPSTTSGGGQLNRAGSISTLDSLDFARYSDDGNRETDERVAVLEFELRKAKETIQALRANLTKAAEHEVPLQERKNYKSSPEIQEPIKPLEKRALNFLVNEFLLKNNYKLTSITFSDENDDQDFELWDDVGLNIPKPPDLLQLYRDFGNHQVTGKDLVDVASGVDEDELEALTPILGNVPPTLDTPLPIENTLLVQKLEDKISLLNNEKWSLMEQIRRLESEMDILKAEHFATPAVGDSVQPSLVWSSQKDSEDNRQSPAVNSSDQEKTKDVHLEIPDAADSFIPKENSSGSFPRKEREELPPSSVSNKTTLHFDQPNRKLSPAFHQALLSFCRMSADSRLGSEVSRIADSEKSVMLMLGRCLPHIVPNVLLAKREELIPLILCTACLHPEPKERDQLLHILFNLIKRPDDEQRQMILTGCVAFARHVGPTRVEAELLPQCWEQINHKYPERRLLVAESCGALAPYLPKEIRSSLVLSMLQQMLMEDKADLVREAVIKSLGIIMGYIDDPDKYQQGFELLLSALGDPSERVVSATHQVFLPAYAAWTTELGNLQSHLIPTLLNKIEKLLREGEHGLDEHKLHMYLSALQSLIPSLFALVLQNAPFSSKAKLHGEVPHIEVTRFPRPMSPLQDVSTIIGSREQLAVLLQLYDYQLEHEGTTGWESLLWVVNQLLPQLIEIVGKINVTSTACVHEFSRFFWRLCRTFGKIFTNTKVKPQFQEILRLSEENIDSSAGNGVLTKATVPIYATGVLTCYIQEEDRKLLVGFLEDVMTLLSLSHAPLDSLKASFVELGANPAYHELLLTVLWYGVVHTSALVRCTAARMFELLVKGVNETLVAQRVVPALITLSSDPEISVRIATIPAFGTIMETVIQRELLERVKMQLASFLEDPQYQDQHSLHTEVIRTFGRVGPNAEPRFRDEFVIPHLHKLALVNNLQIVDSKKLDIATHLFEAYSALSCCFISEDLMVNHFLPGLRCLRTDMEHLSPEHEVILSSMIKECEQKVENKTVQEPPGSMSIAASLVSEDTKTKFLNKMGQLTTSGAMLANVFQRKK
B4: Myc-tagged RELCH 497–1,216 (domain or fragment, UniProt Q148V7 497-1216)
chain: CRMSADSRLGSEVSRIADSEKSVMLMLGRCLPHIVPNVLLAKREELIPLILCTACLHPEPKERDQLLHILFNLIKRPDDEQRQMILTGCVAFARHVGPTRVEAELLPQCWEQINHKYPERRLLVAESCGALAPYLPKEIRSSLVLSMLQQMLMEDKADLVREAVIKSLGIIMGYIDDPDKYQQGFELLLSALGDPSERVVSATHQVFLPAYAAWTTELGNLQSHLIPTLLNKIEKLLREGEHGLDEHKLHMYLSALQSLIPSLFALVLQNAPFSSKAKLHGEVPHIEVTRFPRPMSPLQDVSTIIGSREQLAVLLQLYDYQLEHEGTTGWESLLWVVNQLLPQLIEIVGKINVTSTACVHEFSRFFWRLCRTFGKIFTNTKVKPQFQEILRLSEENIDSSAGNGVLTKATVPIYATGVLTCYIQEEDRKLLVGFLEDVMTLLSLSHAPLDSLKASFVELGANPAYHELLLTVLWYGVVHTSALVRCTAARMFELLVKGVNETLVAQRVVPALITLSSDPEISVRIATIPAFGTIMETVIQRELLERVKMQLASFLEDPQYQDQHSLHTEVIRTFGRVGPNAEPRFRDEFVIPHLHKLALVNNLQIVDSKKLDIATHLFEAYSALSCCFISEDLMVNHFLPGLRCLRTDMEHLSPEHEVILSSMIKECEQKVENKTVQEPPGSMSIAASLVSEDTKTKFLNKMGQLTTSGAMLANVFQRKK
B5: RELCH Δ (497–779) (protein, UniProt Q148V7)
chain: MAAMAPGGGGSGSGVNPFLSDSDEDDDEVAATEDRRAGLRLGAGVGLDPGSAGSLSPQDPMALGSSARPGLAVEMSAAPAALGGSGETPARLSIDAIAAQLLRDQYLLTALELHTELLESGRELPRLRDYFSNPGNFERQSGTPPGMGAPGIPGASIVGGAGGREPSTTSGGGQLNRAGSISTLDSLDFARYSDDGNRETDERVAVLEFELRKAKETIQALRANLTKAAEHEVPLQERKNYKSSPEIQEPIKPLEKRALNFLVNEFLLKNNYKLTSITFSDENDDQDFELWDDVGLNIPKPPDLLQLYRDFGNHQVTGKDLVDVASGVDEDELEALTPILGNVPPTLDTPLPIENTLLVQKLEDKISLLNNEKWSLMEQIRRLESEMDILKAEHFATPAVGDSVQPSLVWSSQKDSEDNRQSPAVNSSDQEKTKDVHLEIPDAADSFIPKENSSGSFPRKEREELPPSSVSNKTTLHFDQPNRKLSPAFHQALLSFPHIEVTRFPRPMSPLQDVSTIIGSREQLAVLLQLYDYQLEHEGTTGWESLLWVVNQLLPQLIEIVGKINVTSTACVHEFSRFFWRLCRTFGKIFTNTKVKPQFQEILRLSEENIDSSAGNGVLTKATVPIYATGVLTCYIQEEDRKLLVGFLEDVMTLLSLSHAPLDSLKASFVELGANPAYHELLLTVLWYGVVHTSALVRCTAARMFELLVKGVNETLVAQRVVPALITLSSDPEISVRIATIPAFGTIMETVIQRELLERVKMQLASFLEDPQYQDQHSLHTEVIRTFGRVGPNAEPRFRDEFVIPHLHKLALVNNLQIVDSKKLDIATHLFEAYSALSCCFISEDLMVNHFLPGLRCLRTDMEHLSPEHEVILSSMIKECEQKVENKTVQEPPGSMSIAASLVSEDTKTKFLNKMGQLTTSGAMLANVFQRKK
B6: Myc-tagged RELCH 1–496 (domain or fragment, UniProt Q148V7 1-496)
chain: MAAMAPGGGGSGSGVNPFLSDSDEDDDEVAATEDRRAGLRLGAGVGLDPGSAGSLSPQDPMALGSSARPGLAVEMSAAPAALGGSGETPARLSIDAIAAQLLRDQYLLTALELHTELLESGRELPRLRDYFSNPGNFERQSGTPPGMGAPGIPGASIVGGAGGREPSTTSGGGQLNRAGSISTLDSLDFARYSDDGNRETDERVAVLEFELRKAKETIQALRANLTKAAEHEVPLQERKNYKSSPEIQEPIKPLEKRALNFLVNEFLLKNNYKLTSITFSDENDDQDFELWDDVGLNIPKPPDLLQLYRDFGNHQVTGKDLVDVASGVDEDELEALTPILGNVPPTLDTPLPIENTLLVQKLEDKISLLNNEKWSLMEQIRRLESEMDILKAEHFATPAVGDSVQPSLVWSSQKDSEDNRQSPAVNSSDQEKTKDVHLEIPDAADSFIPKENSSGSFPRKEREELPPSSVSNKTTLHFDQPNRKLSPAFHQALLSF
B7: Myc-tagged RELCH 1,143–1,216 (domain or fragment, UniProt Q148V7 1143-1216)
chain: TDMEHLSPEHEVILSSMIKECEQKVENKTVQEPPGSMSIAASLVSEDTKTKFLNKMGQLTTSGAMLANVFQRKK

Legend:
[1] = biological target: T1, Flag-OSBP, full length (human); test: co-IP; HEK293FT cells coexpressing Flag-tagged OSBP and Myc-tagged RELCH constructs; anti-Flag M2 affinity gel, elution with Flag-peptide, immunoblot with Myc and Flag antibodies
[2] = biological target: Gal4BD-Rab11a (Q70A), GTP-locked (not stated (human or mouse cDNA cloned)) (UniProt P62491); test: two-hybrid; S. cerevisiae PJ69-4A, Gal4AD (pACT2) RELCH constructs and Gal4BD (pFBT9) GTP-locked Rabs; growth on QDO plates, 3 d at 30°C

Binder | binding [1] | binding [2]
B1 | binds | –
B2 | binds | –
B3 | – | binds
B4 | binds | –
B5 | – | no binding
B6 | no binding | –
B7 | no binding | –

Reference: publication PMC5940305, “The Rab11-binding protein RELCH/KIAA1468 controls intracellular cholesterol distribution” (The Journal of Cell Biology, 2018)
